The list shows a part of the results. At the low end of the ranking, values are background and their order means little.
Biological target: GST-SBP-SLBP (stem-loop binding protein) (UniProt Q14493)
Assay: targeted RNA Bind-n-Seq;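 also: DESeq read counts versus GST-SBP nonspecific binding control pulldown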
Details: RBNS binding buffer: 25 mM Tris pH 7.5, 150 mM KCl, 3 mM MgCl2, 0.1% Tween, 0.5 mg/mL BSA, 1 mM DTT; 27 nM protein, 750 pM RNA pool; temperature not stated; high values mean tight binding

Sequence | binding signal (log2 fold change)
GGUCACGUCUCAAUCAACUCUUCCCCAGGAGUUUACUCCUGCUAUUUCAACAGCUCGCAGUCAAG | -0.0424
GGUCACGUCUCAAUCAACUCCCUCGAGGGGGGGAAAACCCCUUUACCCUCAUUAUCAACAGCUCGCAGUCAAG | 0.395
GGUCACGUCUCAAUCAACUCACUCGAGGGGGGGAAAACCCCUUUACCCUCACUCUCAACAGCUCGCAGUCAAG | -0.216
GGUCACGUCUCAAUCAACUCUUUUCCCAGGGAAAACCCUGGUUAUCUCAACAGCUCGCAGUCAAG | -0.0606
GGUCACGUCUCAAUCAACUCUUACGAGGGGGGGAAAACCCCUUUACCCUCACACUCAACAGCUCGCAGUCAAG | 0.321
GGUCACGUCUCAAUCAACUCAUUCCCCAGGGAAAUCCCUGGCAUUUUCAACAGCUCGCAGUCAAG | -0.0495
GGUCACGUCUCAAUCAACUCUACUCCAGGAGUUUACUCCUGCAUUUUCAACAGCUCGCAGUCAAG | 0.0643
GGUCACGUCUCAAUCAACUCAUUCUCAGGAGUUUUCUCCUGCUAAUUCAACAGCUCGCAGUCAAG | 0.0806
GGUCACGUCUCAAUCAACUCAACUCCCAGGGAAAACCCUGGUAAAUUCAACAGCUCGCAGUCAAG | -0.125
GGUCACGUCUCAAUCAACUCUUUCCCAGGAGUUUUCUCCUGCUUUUUCAACAGCUCGCAGUCAAG | 0.151
GGUCACGUCUCAAUCAACUCACACGAGGGGGGGAAAACCCCUUUACCCUCUUUAUCAACAGCUCGCAGUCAAG | 0.0022
GGUCACGUCUCAAUCAACUCAAUUCCCAGGGAAAUCCCUGGCAUAGUCAACAGCUCGCAGUCAAG | 0.0974
GGUCACGUCUCAAUCAACUCAUUUUCCAGGGAAACCCCUGGCUAUCUCAACAGCUCGCAGUCAAG | -0.0352
GGUCACGUCUCAAUCAACUCUACUCCAGGAGUUUUCUCCUGUUUUUUCAACAGCUCGCAGUCAAG | -0.0683
GGUCACGUCUCAAUCAACUCAUUAGAGGGGGGGAAAACCCCUUUACCCUCCAAAUCAACAGCUCGCAGUCAAG | -0.0743
GGUCACGUCUCAAUCAACUCUACUUCCAGGGAAAGCCCUGGCUAACUCAACAGCUCGCAGUCAAG | -0.0191
GGUCACGUCUCAAUCAACUCAAUUCCCAGGGAAAGCCCUGGUAUAUUCAACAGCUCGCAGUCAAG | 0.107
GGUCACGUCUCAAUCAACUCUUAAGAGGGGGGGAAAACCCCUUUACCCUCAAACUCAACAGCUCGCAGUCAAG | -0.145
GGUCACGUCUCAAUCAACUCAAUAGAGGGGGGGAAAACCCCUUUGCCCUCAUACUCAACAGCUCGCAGUCAAG | 0.0388
GGUCACGUCUCAAUCAACUCCCAAGAGGGGGGGAAAACCCCUUUACCCUCACAUUCAACAGCUCGCAGUCAAG | -0.146
GGUCACGUCUCAAUCAACUCAGUCUCAGGAGUUUACUCCUGUUAAUUCAACAGCUCGCAGUCAAG | -0.335
GGUCACGUCUCAAUCAACUCAAUCCCAGGAGUUUACUCCUGCAAUCUCAACAGCUCGCAGUCAAG | 0.0774
GGUCACGUCUCAAUCAACUCAAUUCCAGGAGUUUGCUCCUGCUAUCUCAACAGCUCGCAGUCAAG | 0.0045
GGUCACGUCUCAAUCAACUCAUCCUCCAGGGAAAGCCCUGGCAUUCUCAACAGCUCGCAGUCAAG | 0.0968
GGUCACGUCUCAAUCAACUCUAUUUCCAGGGAAAACCCUGGUUAACUCAACAGCUCGCAGUCAAG | 0.0111

Sequence | binding signal (log2 fold change)
GGUCACGUCUCAAUCAACUCAACUUCCAGGGAAAACCCUGGCUUACUCAACAGCUCGCAGUCAAG | 0.116
GGUCACGUCUCAAUCAACUCUUCCCCCAGGGAAAUCCCUGGCUAUGUCAACAGCUCGCAGUCAAG | 0.209
GGUCACGUCUCAAUCAACUCAACUCCCAGGGAAAGCCCUGGUUAACUCAACAGCUCGCAGUCAAG | -0.118
GGUCACGUCUCAAUCAACUCAUUUUCAGGAGUUUACUCCUGCUUUGUCAACAGCUCGCAGUCAAG | -0.0307
GGUCACGUCUCAAUCAACUCAACUCCCAGGGAAACCCCUGGUAUUUUCAACAGCUCGCAGUCAAG | 0.144
GGUCACGUCUCAAUCAACUCAACUCCCAGGGAAAGCCCUGGUAUACUCAACAGCUCGCAGUCAAG | 0.301
GGUCACGUCUCAAUCAACUCAUUUUCCAGGGAAAUCCCUGGCAUUCUCAACAGCUCGCAGUCAAG | 0.095
GGUCACGUCUCAAUCAACUCUUUCCCCAGGGAAACCCCUGGUUAACUCAACAGCUCGCAGUCAAG | 0.0205
GGUCACGUCUCAAUCAACUCAACUUCCAGGGAAACCCCUGGUAUUCUCAACAGCUCGCAGUCAAG | 0.0421
GGUCACGUCUCAAUCAACUCAUUCCCAGGAGUUUACUCCUGCAAACUCAACAGCUCGCAGUCAAG | 0.0948
GGUCACGUCUCAAUCAACUCAAUUCCCAGGGAAAGCCCUGGCUUUUUCAACAGCUCGCAGUCAAG | -0.246
GGUCACGUCUCAAUCAACUCUUCCCCCAGGGAAAUCCCUGGUUAUGUCAACAGCUCGCAGUCAAG | -0.214
GGUCACGUCUCAAUCAACUCAUCUCCCAGGGAAAACCCUGGCAUUCUCAACAGCUCGCAGUCAAG | 0.367
GGUCACGUCUCAAUCAACUCAUCGUCCAGGGAAACCCCUGGCUAAUUCAACAGCUCGCAGUCAAG | 0.0909
GGUCACGUCUCAAUCAACUCAUUCUCAGGAGUUUCCUCCUGUUUUCUCAACAGCUCGCAGUCAAG | 0.1
GGUCACGUCUCAAUCAACUCAUAGGAGGGGGGGAAAACCCCUUUACCCUCACCAUCAACAGCUCGCAGUCAAG | 0.183
GGUCACGUCUCAAUCAACUCCACGGAGGGGGGGAAAACCCCUUUACCCUCAUUAUCAACAGCUCGCAGUCAAG | -0.262
GGUCACGUCUCAAUCAACUCUUCAGAGGGGGGGAAAACCCCUUUACCCUCACAAUCAACAGCUCGCAGUCAAG | 0.311
GGUCACGUCUCAAUCAACUCUUCUUCCAGGGAAAACCCUGGCGUUUUCAACAGCUCGCAGUCAAG | 0.0156
GGUCACGUCUCAAUCAACUCUUCCCCCAGGGAAAGCCCUGGCAAUGUCAACAGCUCGCAGUCAAG | 0.242
GGUCACGUCUCAAUCAACUCUAUUCCCAGGGAAAACCCUGGUUAUCUCAACAGCUCGCAGUCAAG | 0.0739
GGUCACGUCUCAAUCAACUCAUCAGAGGGGGGGAAAACCCCUUUGCCCUCCAAAUCAACAGCUCGCAGUCAAG | -0.0243
GGUCACGUCUCAAUCAACUCAUUUCCCAGGGAAACCCCUGGUUUUCUCAACAGCUCGCAGUCAAG | -0.0247
GGUCACGUCUCAAUCAACUCAAAAGAGGGGGGGAAAACCCCUUUACCCUCACUAUCAACAGCUCGCAGUCAAG | 0.21
GGUCACGUCUCAAUCAACUCAUAAGAGGGGGGGAAAACCCCUUUGCCCUCACAAUCAACAGCUCGCAGUCAAG | -0.22

Sequence | binding signal (log2 fold change)
GGUCACGUCUCAAUCAACUCAACUUCCAGGGAAACCCCUGGUUUACUCAACAGCUCGCAGUCAAG | -0.0587
GGUCACGUCUCAAUCAACUCAUUUCCCAGGGAAAUCCCUGGUUUACUCAACAGCUCGCAGUCAAG | 0.149
GGUCACGUCUCAAUCAACUCUUUCCCCAGGGAAAGCCCUGGUAUAUUCAACAGCUCGCAGUCAAG | 0.13
GGUCACGUCUCAAUCAACUCUCUCGAGGGGGGGAAAACCCCUUUGCCCUCAUUCUCAACAGCUCGCAGUCAAG | 0.171
GGUCACGUCUCAAUCAACUCAUUCCCAGGAGUUUUCUCCUGUUUAUUCAACAGCUCGCAGUCAAG | -0.0654
GGUCACGUCUCAAUCAACUCAUUUUCAGGAGUUUCCUCCUGCAUACUCAACAGCUCGCAGUCAAG | 0.00561
GGUCACGUCUCAAUCAACUCGUCUUCAGGAGUUUUCUCCUGCUAUUUCAACAGCUCGCAGUCAAG | -0.0282
GGUCACGUCUCAAUCAACUCAAUCCCAGGAGUUUUCUCCUGUAAACUCAACAGCUCGCAGUCAAG | 0.126
GGUCACGUCUCAAUCAACUCAAUCCCAGGAGUUUCCUCCUGUUAUCUCAACAGCUCGCAGUCAAG | 0.0845
GGUCACGUCUCAAUCAACUCUAUUCCCAGGGAAAACCCUGGUUUACUCAACAGCUCGCAGUCAAG | 0.219
GGUCACGUCUCAAUCAACUCUAUCGCAGGAGUUUCCUCCUGGUUUCUCAACAGCUCGCAGUCAAG | -0.00904
GGUCACGUCUCAAUCAACUCUUUCGAGGGGGGGAAAACCCCUUUACCCUCUCAAUCAACAGCUCGCAGUCAAG | 0.258
GGUCACGUCUCAAUCAACUCUUCGGAGGGGGGGAAAACCCCUUUACCCUCAUCCUCAACAGCUCGCAGUCAAG | -0.311
GGUCACGUCUCAAUCAACUCAUCCCCCAGGGAAAGCCCUGGUAAAUUCAACAGCUCGCAGUCAAG | 0.114
GGUCACGUCUCAAUCAACUCUUCGCCCAGGGAAAGCCCUGGUUAAUUCAACAGCUCGCAGUCAAG | 0.0233
GGUCACGUCUCAAUCAACUCAUCGCCAGGAGUUUCCUCCUGCUUUUUCAACAGCUCGCAGUCAAG | 0.108
GGUCACGUCUCAAUCAACUCUUUUCCCAGGGAAAUCCCUGGCAUUUUCAACAGCUCGCAGUCAAG | 0.0544
GGUCACGUCUCAAUCAACUCUAUUCCCAGGGAAAUCCCUGGUAUUCUCAACAGCUCGCAGUCAAG | 0.0945
GGUCACGUCUCAAUCAACUCUAUUUCCAGGGAAAACCCUGGUAUAUUCAACAGCUCGCAGUCAAG | -0.405
GGUCACGUCUCAAUCAACUCAUUCCCCAGGGAAAGCCCUGGCAAUCUCAACAGCUCGCAGUCAAG | -0.0474
GGUCACGUCUCAAUCAACUCCUCAGAGGGGGGGAAAACCCCUUUACCCUCAACCUCAACAGCUCGCAGUCAAG | -0.261
GGUCACGUCUCAAUCAACUCUAAAGAGGGGGGGAAAACCCCUUUACCCUCACUCUCAACAGCUCGCAGUCAAG | -0.625
GGUCACGUCUCAAUCAACUCCCUAGAGGGGGGGAAAACCCCUUUGCCCUCGUAAUCAACAGCUCGCAGUCAAG | 0.101
GGUCACGUCUCAAUCAACUCCCUCGAGGGGGGGAAAACCCCUUUACCCUCCACAUCAACAGCUCGCAGUCAAG | -0.339
